First the molecules themselves.
T1: UNK ZnF1-3 (human, UniProt Q9C0B0 31-174)
T1 sequence: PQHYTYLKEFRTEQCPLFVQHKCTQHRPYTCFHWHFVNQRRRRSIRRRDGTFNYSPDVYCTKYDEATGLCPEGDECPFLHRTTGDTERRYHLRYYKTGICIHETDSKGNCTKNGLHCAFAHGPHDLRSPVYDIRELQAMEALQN

B1: 4274702_4274822_3862_CDS_ENSMUSG00000020647_ENSMUST00000085814|mouse|control|control (ssRNA)
RNA: GGGAGUUCUACAGUCCGACGAUCCCCCUGUAGCCGCUGCUGCAGCUGCAGCCGAAGCUGGUUGGGUGCAGCUGGAGGUCUAUUGAGAGUCUGCCGGGGCUGCAUGCCCAUGUUGGGUGAAAAGGUUCCUCGAGGAGGUGUUACCAACAGAGGAUUGAGCAUCA
B2: 176684058_176687015_4977_CDS_ENSG00000165671_ENST00000439151|human|control|control (ssRNA)
RNA: GGGAGUUCUACAGUCCGACGAUCACAGCGGACACAGCGCAUCAACCGACCUUUAGAUGCAGAAACAUUGGCUGGAUUAGCAGCAUGACAGGUUAUACAGAUGUGGAGGGAGCACCGGAAGCCCUUGUUCUGCAUAACAGUGGGCAACAGAGGAUUGAGCAUCA
B3: chr9:79603372:79603373:-_ENSMUSG00000032330_ENSMUST00000034881|mus_hu|FALSE|FALSE (ssRNA)
RNA: GGGAGUUCUACAGUCCGACGAUCAAGCGAUUGCUGGGAUGACUGAAGUCACUCCUGCUUCUUGGGAAAUGAAGCCACAGCCAGCUCAUAUAUGGCAUAUGCUGUUCCUUCAAACAUUCCAAAGGCCUUACCACCAACUGUAAGCAACAGAGGAUUGAGCAUCA
B4: 6302852_6303219_2100_CDS_ENSMUSG00000041164_ENSMUST00000102914|mouse|control|control (ssRNA)
RNA: GGGAGUUCUACAGUCCGACGAUCUGGCCCAUCCGGCUCCUCCUUGAUGUGUAGGUCAGGCUUCACAGGCACUGGCUUCCAGCUGCACGUGGGGUCAAUGGUGAUCUCCUCGUAGUCUGAGUUCUGAAUAUAAAUCAGGAUGCCCAACAGAGGAUUGAGCAUCA
B5: chr2:48026839:48026840:+_ENSG00000116062_ENST00000540021|hu_hu|hu_hu_hu_mus_False|18_68 (ssRNA)
RNA: GGGAGUUCUACAGUCCGACGAUCAUAGUGAGCCACUAGCGUCCUAAAUCUGGAACAGUGGCGGUCAUCUGAAAACUGGCCGAUGAAAAACUUGCCCAGUGAAGUGUCCACAAAGCACACACCAUAUACACGAGUGUGACCAGACAACAGAGGAUUGAGCAUCA
B6: chr6:83878822:83878823:+_ENSMUSG00000030016_ENSMUST00000032088|mus_mus|FALSE|FALSE (ssRNA)
RNA: GGGAGUUCUACAGUCCGACGAUCUCCCUCGAGGAUUAAACCUGGGUCUCGACAUGGCUACUUUCAAGAAUGCCUGAUUUAAAAAAGUAUAAGGUGGUGUUGAACCAUGGGAGGCAACGGCAUUCAGCUGCUGAAGCGCCAACUCAACAGAGGAUUGAGCAUCA
B7: chr15:37385894:37385895:-_ENSG00000134138_ENST00000382766|hu_hu|motif|central (ssRNA)
RNA: GGGAGUUCUACAGUCCGACGAUCGCUGCCGUCUCUUUCAUCAAUGACGAGGUCGAUGGGCAUUUUCCCCUUCAAACAGCGGAUGUAUCGGUGGCAGAAGUUAUCGCACAGUUCGUGGACCUUUUCUAACUCCAAAAGAUGAAACAACAGAGGAUUGAGCAUCA
B8: chr7:56126341:56126342:+_ENSG00000146731_ENST00000540286|hu_mus|hu_hu_hu_mus_True|88_98 (ssRNA)
RNA: GGGAGUUCUACAGUCCGACGAUCCAUGUUUCUCCUCUUAGCUCUGCGCAGAGCAACGAUCCCUUCUUUCGCAAGGGCAUCUAAGGAAAAGGGGUCAAUCCCCUUUUGAUUAAUAACGACAAAUCCUUUAUCUGAGUCACCACACAACAGAGGAUUGAGCAUCA
B9: chrX:70927055:70927056:+_ENSMUSG00000019558_ENSMUST00000114465|mus_mus|FALSE|FALSE (ssRNA)
RNA: GGGAGUUCUACAGUCCGACGAUCAGAGGCUGUGUUUACUUCUGGUAUUCACCUUCACUAAGGGAUAAGAGAUCUACAGACCUACACAUACACACACAUACACACACACACACACACACACACACAGAGGGGGGUGUGCACUCACAACAGAGGAUUGAGCAUCA
B10: chr2:25301763:25301764:+_ENSMUSG00000026944_ENSMUST00000102919|mus_mus|FALSE|FALSE (ssRNA)
RNA: GGGAGUUCUACAGUCCGACGAUCAAGCUUCCGUUUGUUGCCUCCACUGUAGGUGCCAGCUGGCUUGUCUGCAUACUUUGUCAGUUCCAGCUUCUCUAGGGCCCACUUCACUACCUGUGCCUCAUCCUUCCAGGGGAUGCCACGCAACAGAGGAUUGAGCAUCA
B11: chr17:6086338:6086339:+_ENSMUSG00000034345_ENSMUST00000039487|mus_mus|FALSE|FALSE (ssRNA)
RNA: GGGAGUUCUACAGUCCGACGAUCUGACUGAAAUAUAAAAUCCAGUAGUGCUCCAAUACAGCUAGAGUGUCCAUAAAAAUCUAUCUUCUACUUAAUUCUUAGUAUCAGGUGUGUAAGUAACAAUCCACUGGAAAGUUUACAUUACAACAGAGGAUUGAGCAUCA
B12: chr9:96327448:96327449:+_ENSG00000048828_ENST00000277165|hu_hu|motif|central (ssRNA)
RNA: GGGAGUUCUACAGUCCGACGAUCAGUCACGAAAGUUUCAGAACACAUUGUGUUGAUUUUGAAAGGUCAUUUGCAUCUUCGGUGAUUUCAACUUUAUCUCCAUUUAACUUGCUUGUAAAGUAUGUAUGAUGUAUUGUAUAUUUACAACAGAGGAUUGAGCAUCA
B13: chr1:59768832:59768833:+_ENSMUSG00000026020_ENSMUST00000027174|mus_mus|FALSE|FALSE (ssRNA)
RNA: GGGAGUUCUACAGUCCGACGAUCCAUACUGACUCACAACCAUCCAGGUUAAACAAUGGAUUCUUUUGAACUCCACAGACUAAGGUGUAUAAGCAGUACACAUAUACACAUGCAAGAAAAACAAGAGACACAUAGACACACAUGCAACAGAGGAUUGAGCAUCA
B14: 56291633_56292106_645_CDS_ENSG00000011143_ENST00000393119|human|control|control (ssRNA)
RNA: GGGAGUUCUACAGUCCGACGAUCCAGGUCUGCCAUGAUGUGCAUUGUCUGAAGAGGGGUGUUAAUGACGUGGUUGUUCCUGACAAACUCUUCUGAGGGCUCCCAGGUGACGAUGCGUGACUUGAGGAUGCCGCCCUCCAUCCCCAACAGAGGAUUGAGCAUCA
B15: chr1:174983830:174983831:-_ENSG00000120333_ENST00000367677|hu_mus|FALSE|FALSE (ssRNA)
RNA: GGGAGUUCUACAGUCCGACGAUCUUCUGAAAUGGUUUUACCAUAUCGCUCGCUGGACUCCAGAAAGUAGCCCGUGGUCAGCUAAGUGGCGGAAGACAAUGCGACUAAGUCUCCAGCGACGCUUAACACCACGUGGGCGAGAUGCAACAGAGGAUUGAGCAUCA
B16: chr6:160200703:160200704:-_ENSG00000120438_ENST00000392168|hu_hu|motif|central (ssRNA)
RNA: GGGAGUUCUACAGUCCGACGAUCAUGAAAAGCUCUUAAUUUUGCAACCAGAUCUGUGGAGUCCUGGGCAGCAUUAACUGCGGGUGUAUUGGGAAUAACAAGAAGUGAUCUUGCAAACUCUGCAAUCGCAAGCUGUUCCCGAGACAACAGAGGAUUGAGCAUCA
B17: chr3:160143891:160143892:+_ENSG00000113810_ENST00000344722|hu_hu|FALSE|FALSE (ssRNA)
RNA: GGGAGUUCUACAGUCCGACGAUCAGCAAGUACAUUAGCUUCAAGUUCCUUAACUUGGACAUUCAAAUAUUCUUCUUGCUCUAUUAAACGCUGGAUGCUUGCAGUAAAUUUUUCUAGUGUGUUCCUCAUUUCUCGUUCACUAUGCAACAGAGGAUUGAGCAUCA
B18: chr15:42481402:42481403:-_ENSG00000166887_ENST00000318006|hu_mus|FALSE|FALSE (ssRNA)
RNA: GGGAGUUCUACAGUCCGACGAUCCUUUGAGACUGUAGUGAUUUGUUGAAAUGUCAGUAAGUCAUGGACAUAAAUGUUGUUUUCUAACAAGCUGACCAGAAUCUUAAACUGGGAAACCACAUGGAUCUGCUGGAUCUUUUUGGACAACAGAGGAUUGAGCAUCA
B19: chr1:6238667:6238668:+_ENSMUSG00000025907_ENSMUST00000027040|mus_hu|motif|central (ssRNA)
RNA: GGGAGUUCUACAGUCCGACGAUCCAUCAUUUCUGGGCUUUGUGGAUCACUUAUAGGAUUAGGAGACGACAAAUUUUCUUCGGUUACAAACUCAUUCACAGCAGACAUAAAAUCUGAUUCAGGACUUUCUGCUAAUGAAUCCAACAACAGAGGAUUGAGCAUCA
B20: 173274441_173274561_334_CDS_ENSMUSG00000013997_ENSMUST00000111295|mouse|control|control (ssRNA)
RNA: GGGAGUUCUACAGUCCGACGAUCCAAAAGAUCCCCAUUCAGUGGUUCGGACAGGAGUAAUGUCUCGGCAGGGUUUCGUGCAAUAAAGUCAAAUGCCUCAGGCAGAAAGGCCAGGCAAGCACCCAGUCUGGCAGCCUCUUGAACCAACAGAGGAUUGAGCAUCA
B21: chr13:36129161:36129162:+_ENSG00000172915_ENST00000537702|hu_mus|FALSE|FALSE (ssRNA)
RNA: GGGAGUUCUACAGUCCGACGAUCCAAAUACUCAAAGUUGGAGAUUUCCCUUCUUUGCCAGCGCUGAGUCAUAUUGGAAGACUUAUACAGCUGUCGAGGAGUGGCCAGUGAUAUCCUCCUGGCUUGUGGCAAACCAUAGCUGGUCAACAGAGGAUUGAGCAUCA
B22: 4322100_4322220_140_5pUTR_ENSMUSG00000026657_ENSMUST00000075767|mouse|control|control (ssRNA)
RNA: GGGAGUUCUACAGUCCGACGAUCCAGGGAUUGAGCGCGGGCCCGCUGGAGGGGCCUCCUUUCGCCACUGGAUCCCAGGACAACAAUGAGAUCUUCUGCCUCCCUAGCGCCCAAUCCGGCCAAGGACACCCCAAGUCACCCCCCCAACAGAGGAUUGAGCAUCA

This is one part of the list.

This assay concerns the target T1, UNK ZnF1-3. The assay can be described thus: nsRBNS (natural sequence RNA bind-n-seq); RBNS binding buffer (assumed for nsRBNS): 25 mM Tris pH 7.5, 150 mM KCl, 3 mM MgCl2, 0.01% Triton X-100, 500 ug/ml BSA, 20 U/ml SUPERase-In, 4 C; UNK is unkempt and MSI1 is Musashi-1; names of the RNAs are library labels; protein concentration not given here; high values mean tight binding.
On to B1, for which the binding signal is 0.748 enrichment R. Molecule B2 returned a binding signal of 1.53 enrichment R. B3 displayed a binding signal of 0.419 enrichment R.

With B4, the binding signal stood at 0.887 enrichment R. For B5 the value was 1.12 enrichment R; for B6, 1.42 enrichment R. B7: the binding signal was 0.901 enrichment R.

Molecule B8 came in with a binding signal of 1.1 enrichment R. As for B9, the binding signal was found to be 1.07 enrichment R. For the molecule B10, the binding signal was 0.608 enrichment R. Molecule B11 showed a binding signal of 0.833 enrichment R. B12 yielded a binding signal of 0.519 enrichment R.

On to B13, for which the binding signal came to 1.18 enrichment R. B14: the binding signal was determined as 0.691 enrichment R. B15: the binding signal came to 0.464 enrichment R. In the case of B16, the binding signal came out at 0.947 enrichment R.

B17 yielded a binding signal of 0.92 enrichment R. B18 returned a binding signal of 0.492 enrichment R. For B19 the value was 1.35 enrichment R. Turning to B20, the binding signal was 1.02 enrichment R. For the molecule B21, the binding signal is 0.899 enrichment R. Consider B22, for which the binding signal came out at 1.8 enrichment R.

Source of the values: paper PMC12136788.
